# The full ranking holds about 33,000 sequences; the median of “E-score (-0.5 to 0.5)” is about -0.054, and the highest 2% start at about 0.35. Some of the results follow.
# Biological target: T1, Stb5 (UniProt P38699)
# T1 sequence: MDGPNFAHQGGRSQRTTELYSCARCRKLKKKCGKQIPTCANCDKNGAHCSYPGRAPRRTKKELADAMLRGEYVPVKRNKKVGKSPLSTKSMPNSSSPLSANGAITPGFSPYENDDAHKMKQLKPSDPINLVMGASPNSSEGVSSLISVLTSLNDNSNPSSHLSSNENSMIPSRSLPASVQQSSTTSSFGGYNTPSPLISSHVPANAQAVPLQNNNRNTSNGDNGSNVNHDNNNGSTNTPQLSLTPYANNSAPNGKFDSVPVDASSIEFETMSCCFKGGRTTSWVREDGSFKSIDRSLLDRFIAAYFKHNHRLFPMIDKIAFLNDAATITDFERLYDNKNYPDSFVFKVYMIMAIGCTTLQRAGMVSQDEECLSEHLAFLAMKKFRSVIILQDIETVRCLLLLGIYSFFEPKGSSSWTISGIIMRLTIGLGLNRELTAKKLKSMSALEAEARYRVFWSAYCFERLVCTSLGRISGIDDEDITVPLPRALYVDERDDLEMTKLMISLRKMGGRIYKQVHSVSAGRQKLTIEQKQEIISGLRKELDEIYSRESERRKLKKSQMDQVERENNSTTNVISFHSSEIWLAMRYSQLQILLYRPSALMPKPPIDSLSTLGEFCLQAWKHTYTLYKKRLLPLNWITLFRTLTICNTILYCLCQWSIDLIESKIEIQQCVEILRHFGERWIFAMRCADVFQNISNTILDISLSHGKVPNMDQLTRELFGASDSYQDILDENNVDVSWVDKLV
# Assay: PBM E-score (8-mer binding enrichment) (E-score (-0.5 to 0.5)); higher = stronger / more preferred TF binding; most listed sequences are background and not binding sites
# Conditions: protein concentration: 200 nM; construct: GST-full length
# Description: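 Universal 'all 10-mer' protein binding microarrays (Agilent AMADID 015681) probed with GST-tagged S. cerevisiae TFs (full-length or DBD) made by in vitro transcription/translation (PURExpress), about 100-200 nM. Bound TF was detected with fluorescent anti-GST. Each ungapped 8-mer (which stands for itself and its reverse complement) is scored by the PBM enrichment score (E-score), a modified Wilcoxon-Mann-Whitney statistic from -0.5 to +0.5, computed with the Universal PBM Analysis Suite. Scale: above 0.35 generally sequence-specific binding.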
row,Sequence,PBM E-score
1,GTCCCGAC,0.3
2,CATTAGGA,-0.0595
3,GAAGACTC,-0.0722
4,TATTAAAA,0.101
5,GGTCGTAC,0.0865
6,GGGTGGAA,-0.00532
7,ACCGCGGT,0.39
8,AGGTAGAT,-0.184
9,CCCTTCCG,0.114
10,ATATATCC,0.398
11,ACGCATTG,-0.216
12,ATTAGAAT,-0.159
13,AACGCGAT,-0.137
14,CTGCAAAA,-0.127
15,CGCCAGAG,0.0677
16,ATTACAGC,0.0736
17,CCGAGATC,0.169
18,CAGAACCA,-0.292
19,AAAAGATG,-0.173
20,GATCGTAA,-0.24
21,CCCAACTC,-0.0147
22,CAAGGTTC,-0.145
23,GACAAGAA,0.0873
24,AAAACCTT,0.00349
25,CATGGGCC,-0.107

row,Sequence,PBM E-score
1,GACGTCGC,-0.274
2,ACCTGGTG,-0.0417
3,AAAGGAGT,0.0801
4,CGTCAGGA,-0.106
5,GACTGAAC,-0.0643
6,GATGTACA,0.0105
7,GGTCCAAC,0.0671
8,AATCGCGG,0.198
9,CACCTGCC,-0.0477
10,ACAGAATC,-0.16
11,AGATGTAT,-0.221
12,TATATTAA,0.0913
13,ACTGCGAC,0.202
14,AAACGAGG,-0.213
15,ACCGCTAG,0.26
16,CAGTAGCG,0.123
17,AACTTGTC,-0.0353
18,TAACTCGA,-0.135
19,CTAGGTAA,-0.192
20,ACACGTGA,-0.103
21,AAAAAGTA,-0.109
22,CCCTTTAC,0.0164
23,ACTAGAGT,-0.142
24,AATCTGCG,0.145
25,AACAGTAA,-0.0605

row,Sequence,PBM E-score
1,ACAGCTCT,-0.34
2,CTCTAGAG,-0.283
3,ACTGTTAA,0.0508
4,AATGGATA,0.135
5,AACTTTCG,-0.138
6,ACGCCCGC,0.28
7,CAACGATG,-0.158
8,GATGACAC,-0.0254
9,GTGGGCCA,-0.0853
10,CATCGTCA,-0.101
11,GTTCAGCA,-0.246
12,GTCTGTCA,-0.0781
13,CCCTCTGA,-0.0305
14,AGGAAAAG,-0.0495
15,ATCGAGGC,0.00531
16,CCGGTTGA,0.28
17,TGCAAAAA,-0.21
18,GGGGATTA,0.326
19,ATCGTGGC,-0.223
20,ATTTCTCG,0.0306
21,AGGAGCGC,0.0237
22,GGCTGATA,0.122
23,GGCTGCCC,-0.265
24,GAATTACC,0.194
25,GTACGGAC,0.223

row,Sequence,PBM E-score
1,ACGAGCGG,0.301
2,GCGCCAGC,0.112
3,ATCCCGGA,0.131
4,CAACCAGC,-0.168
5,AAATGGAT,-0.168
6,ACAGGGGG,-0.194
7,CGAGTATC,0.0271
8,AACCGCGC,0.273
9,GAAGTTCA,-0.189
10,AGGGCCGC,0.36
11,AACCAGGT,-0.262
12,ACTTTCGC,-0.118
13,AGGTGGAG,-0.162
14,CTAGCTAG,-0.235
15,GAAACAAA,0.00633
16,CGATGCGA,-0.0934
17,AGACGACC,-0.193
18,GCTAGTCC,0.0729
19,AGCGACCT,-0.0491
20,AATTCTCA,-0.167
21,AAAGAAAG,-0.00166
22,AATAGCAT,-0.131
23,AGCTCTGA,-0.246
24,CGGATGGA,0.0297
25,GCCTTATA,0.131

row,Sequence,PBM E-score
1,AATGATCT,-0.281
2,AGCATACC,-0.102
3,CCAAAAGC,-0.0336
4,CAGGCATC,-0.241
5,AGGATTAT,-0.114
6,ATCGAACC,-0.103
7,ACAACTCG,-0.042
8,ACAGTACC,0.0909
9,CATTTACC,-0.0221
10,AGCATGAG,-0.148
11,CGTTTCAG,0.0487
12,ACGTACCC,0.0314
13,CACAGTCA,-0.367
14,AATATGTG,-0.156
15,CGTCAAAG,-0.212
16,CCTTATAA,0.148
17,GTGTGGGA,0.00786
18,CGAAAACG,-0.00617
19,CATTCATC,-0.0199
20,TCAGCGGA,0.292
21,AACATTAG,-0.222
22,TACAAAAA,-0.0475
23,CAGACGGC,0.111
24,GCACAGGC,0.0152
25,AGCAGGCG,0.116

row,Sequence,PBM E-score
1,CGGGCCGC,0.195
2,GACGTTGA,-0.0865
3,ACAACTGG,-0.043
4,TTCTAGAA,0.0589
5,ACGGGTCC,0.136
6,ATTACCAG,-0.00345
7,ACATCTCA,-0.186
8,ATAAGACG,-0.111
9,ACCGCGCG,0.335
10,TATCCTGA,-0.165
11,CGTGACTC,-0.0673
12,ATCAAAAA,-0.105
13,GATATCCA,-0.16
14,CGTCACAC,-0.0536
15,CCCTCCAC,-0.135
16,CAGCAGGG,-0.0502
17,GATCAATA,-0.00908
18,CAAGTAGC,-0.0947
19,ATAATTCG,0.0966
20,CGTCCACG,0.101
21,AGCTTTTA,-0.0402
22,CGGGCTAC,-0.00212
23,CTAACTGA,-0.00089
24,GCGACGCA,0.0501
25,TGTACTAA,-0.0713

row,Sequence,PBM E-score
1,ACCATGGA,-0.182
2,CGTGTCTA,-0.0149
3,GCGTGGAC,0.0763
4,ACGCGAAC,-0.196
5,GTGGTCAA,-0.291
6,GAAATACA,-0.136
7,CGAGATAC,0.0896
8,CTCTGGGA,-0.104
9,AGTGGGCA,-0.0991
10,AGTCCACC,0.0594
11,AAGAAGAG,-0.141
12,TGAGCACA,-0.208
13,CAATTCAC,-0.0252
14,CCTCACGC,-0.126
15,ACGTACCT,-0.374
16,AATTCCGT,0.267
17,CCCCGACA,0.412
18,ACGCATGA,-0.175
19,CGGTGCAA,0.348
20,CTCACCAG,-0.12
21,ACCAAGTC,0.0973
22,TGCCGCAA,0.193

# — the supplement of paper PMC3334620
